Source: the supplement of paper PMC3334620
The full ranking holds about 33,000 sequences; the median of “E-score (-0.5 to 0.5)” is about -0.035, and the highest 2% start at about 0.34. The list shows a part of the results.

What follows are sequences tested against T1, Mot3 (UniProt P54785) (assay: PBM E-score (8-mer binding enrichment) (E-score (-0.5 to 0.5)); higher = stronger / more preferred TF binding; most listed sequences are background and not binding sites). Conditions: protein concentration: 200 nM; construct: GST-full length.
T1 sequence: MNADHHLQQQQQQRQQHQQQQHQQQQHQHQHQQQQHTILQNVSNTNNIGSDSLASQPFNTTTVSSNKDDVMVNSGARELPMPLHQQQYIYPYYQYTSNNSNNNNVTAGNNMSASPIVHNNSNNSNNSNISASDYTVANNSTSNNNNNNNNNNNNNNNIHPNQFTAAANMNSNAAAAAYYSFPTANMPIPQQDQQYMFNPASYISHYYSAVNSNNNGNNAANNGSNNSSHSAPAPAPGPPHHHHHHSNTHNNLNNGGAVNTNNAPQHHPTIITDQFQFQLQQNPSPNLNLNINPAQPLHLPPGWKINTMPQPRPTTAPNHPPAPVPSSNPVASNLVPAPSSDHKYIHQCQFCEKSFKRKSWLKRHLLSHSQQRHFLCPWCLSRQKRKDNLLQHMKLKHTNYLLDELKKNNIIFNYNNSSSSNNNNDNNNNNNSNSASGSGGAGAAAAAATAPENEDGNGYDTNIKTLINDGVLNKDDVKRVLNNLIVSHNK
In short: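 For each ungapped eight-base word taken together with its reverse complement, the Universal PBM Analysis Suite assigned an E-score. Binding data came from GST-tagged yeast transcription factors, applied at about 100-200 nM, on universal all-10-mer Agilent arrays made double-stranded by primer extension. Fluorescent anti-GST marked bound protein, and scans were normalised with masliner.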
In the case of CTCATAGA, the “PBM E-score” value is reported as -0.101. For ACGCGCGG, the “PBM E-score” value was -0.081. With ACAATCGA the “PBM E-score” value was -0.0299. In the case of ATTATTAA, the “PBM E-score” value is reported as 0.0971. For TGAAAAAA, the “PBM E-score” value was 0.128. For CACGCCGG, the “PBM E-score” value was -0.201. With CGTTTGCC the “PBM E-score” value was 0.103. In the case of AGATAATG, the “PBM E-score” value is reported as 0.19. ATGAGGAC was tested, and the “PBM E-score” value was -0.21. In the case of GCCATCGC, the “PBM E-score” value is reported as -0.25. AAGTGCAA was tested, and the “PBM E-score” value was -0.0305. In the case of TGTGATAA, the “PBM E-score” value is reported as 0.253. CAACCGGG was tested, and the “PBM E-score” value was -0.0935. TCGCCCAA was tested, and the “PBM E-score” value was -0.203. In the case of ATGAATAC, the “PBM E-score” value is reported as 0.0773. For TGATTCAA, the “PBM E-score” value was 0.122. In the case of CACATGGA, the “PBM E-score” value is reported as 0.0921. With AGATCGAA the “PBM E-score” value was -0.14. For GGCTGAAA, the “PBM E-score” value was -0.00504. With CTCTCGCC the “PBM E-score” value was -0.162. With GCGGGAAA the “PBM E-score” value was 0.0709. In the case of GAATTACA, the “PBM E-score” value is reported as 0.366. With ATGTCGGA the “PBM E-score” value was -0.023. For GTTTCTTA, the “PBM E-score” value was 0.0641. With CCCATCGC the “PBM E-score” value was -0.16. For AGTGGCCG, the “PBM E-score” value was -0.346. For CGTGACCC, the “PBM E-score” value was -0.0451. For CAGTGATC, the “PBM E-score” value was -0.0773. For CCATAATA, the “PBM E-score” value was 0.0795. In the case of CCCTGAGG, the “PBM E-score” value is reported as -0.0615. With AGATAGTC the “PBM E-score” value was -0.0427. AAAAGGTT was tested, and the “PBM E-score” value was 0.0251. For ATTCATCC, the “PBM E-score” value was 0.0274. CGTATTAG was tested, and the “PBM E-score” value was 0.205. With TCTAGAGA the “PBM E-score” value was -0.194. CGGCCAAC was tested, and the “PBM E-score” value was -0.155. For ATCCCTAA, the “PBM E-score” value was -0.204. With AAAGCCGC the “PBM E-score” value was -0.119. GCAGCGGC was tested, and the “PBM E-score” value was -0.323. GAGTGTGA was tested, and the “PBM E-score” value was 0.0249. For GAGAAACA, the “PBM E-score” value was 0.199. For CGGAGGGA, the “PBM E-score” value was -0.312. For CCGTTGCG, the “PBM E-score” value was -0.0656. For CACACGTA, the “PBM E-score” value was 0.208. For CAATGAGA, the “PBM E-score” value was -0.0142. ACGGTTAT was tested, and the “PBM E-score” value was -0.0155. CCTTGGAG was tested, and the “PBM E-score” value was -0.0105. In the case of ACCAGGTA, the “PBM E-score” value is reported as 0.112. With AAATTGGA the “PBM E-score” value was -0.0378. AACGATTG was tested, and the “PBM E-score” value was 0.139. With AGGTAGTG the “PBM E-score” value was -0.0997. With ACCGTCCT the “PBM E-score” value was -0.206. For AAATGAAA, the “PBM E-score” value was 0.156. With AGGCTTAA the “PBM E-score” value was 0.0146. With CGTCGGAA the “PBM E-score” value was 0.0215. With CGACTCGA the “PBM E-score” value was -0.00635. For ACCCATCT, the “PBM E-score” value was -0.0782. For CCACTTGC, the “PBM E-score” value was -0.157. CAAGAACA was tested, and the “PBM E-score” value was 0.166. In the case of GGTATGTA, the “PBM E-score” value is reported as 0.343. With ATCTCCGC the “PBM E-score” value was -0.251. For GAGATGGA, the “PBM E-score” value was -0.309. In the case of ACGAGGGA, the “PBM E-score” value is reported as -0.134. CGCAAAGC was tested, and the “PBM E-score” value was -0.281. In the case of CTCCGAAA, the “PBM E-score” value is reported as -0.173. With CTGAGACA the “PBM E-score” value was -0.0994. TTAAGCAA was tested, and the “PBM E-score” value was 0.116. With AGTTTAAG the “PBM E-score” value was 0.0984. For CTCAGGAA, the “PBM E-score” value was 0.335. In the case of GATTAGGA, the “PBM E-score” value is reported as 0.0102. For GCCGGACA, the “PBM E-score” value was -0.256. For ACGTCGGG, the “PBM E-score” value was -0.205. For TAATTCTA, the “PBM E-score” value was 0.168. With GCGCTCGA the “PBM E-score” value was -0.00313. In the case of CTCCTGGA, the “PBM E-score” value is reported as -0.172. CCGCGTTA was tested, and the “PBM E-score” value was 0.169. ATCCAGTG was tested, and the “PBM E-score” value was -0.0645. AGGATTCC was tested, and the “PBM E-score” value was -0.109. With CTAGATGC the “PBM E-score” value was -0.0193. CCATCTCC was tested, and the “PBM E-score” value was -0.26. In the case of GGCCGCCA, the “PBM E-score” value is reported as -0.209. AGCTCTTA was tested, and the “PBM E-score” value was 0.0235. For AGCCCATA, the “PBM E-score” value was -0.0979. GACTGTGA was tested, and the “PBM E-score” value was -0.0263. For ATAGGCAA, the “PBM E-score” value was 0.486. In the case of ACTCGCTC, the “PBM E-score” value is reported as -0.0329. With ATGTTATA the “PBM E-score” value was 0.318. With AGGAACCT the “PBM E-score” value was 0.458. For AGCTTGGG, the “PBM E-score” value was -0.236. With GGTTTGCA the “PBM E-score” value was 0.0583. With CGACGAAG the “PBM E-score” value was -0.058. For CTATAGAC, the “PBM E-score” value was -0.0945. GTGTAGAA was tested, and the “PBM E-score” value was 0.364. With CCCTAGCA the “PBM E-score” value was -0.0173. For GCTCTGCC, the “PBM E-score” value was -0.188. ACTACCTA was tested, and the “PBM E-score” value was 0.153. In the case of AACCATTG, the “PBM E-score” value is reported as 0.147. ATCCTTGC was tested, and the “PBM E-score” value was -0.0546. For CAGAATGA, the “PBM E-score” value was -0.0525. For GAAATGAA, the “PBM E-score” value was 0.0736. CCAGAACC was tested, and the “PBM E-score” value was 0.0586. In the case of CCAAAGCA, the “PBM E-score” value is reported as -0.101. For AATTACCC, the “PBM E-score” value was -0.0825. CCTCTTAC was tested, and the “PBM E-score” value was -0.0603. AATCTGAT was tested, and the “PBM E-score” value was -0.0609. TGGCTCAA was tested, and the “PBM E-score” value was -0.259. For CATTGCGA, the “PBM E-score” value was 0.077. AGTTCCTG was tested, and the “PBM E-score” value was 0.403. CGTTCAAA was tested, and the “PBM E-score” value was -0.112. CATTGAGA was tested, and the “PBM E-score” value was -0.0927. GGATTCCC was tested, and the “PBM E-score” value was -0.299. In the case of CAGCGTCA, the “PBM E-score” value is reported as -0.168. For CCAGGTCA, the “PBM E-score” value was -0.0989. With AGCAAACA the “PBM E-score” value was 0.0584. GGGTTAAC was tested, and the “PBM E-score” value was 0.197. ATTCCCCA was tested, and the “PBM E-score” value was -0.04. GGTTATCA was tested, and the “PBM E-score” value was -0.12. With CTTCTGGC the “PBM E-score” value was -0.0901. For AACTTTGT, the “PBM E-score” value was 0.112. In the case of CAGTAACC, the “PBM E-score” value is reported as -0.203. For CACGGGCA, the “PBM E-score” value was 0.222. For CCAGGCAA, the “PBM E-score” value was 0.477. In the case of CTGCACCA, the “PBM E-score” value is reported as -0.213. CCTAGTAC was tested, and the “PBM E-score” value was 0.162. TGCAACCA was tested, and the “PBM E-score” value was -0.0159. For GTGGTGAA, the “PBM E-score” value was -0.189. CCTGGACA was tested, and the “PBM E-score” value was -0.0055. ACGACGGG was tested, and the “PBM E-score” value was -0.105. For CTCATGCC, the “PBM E-score” value was 0.0205. For AGCGAGAC, the “PBM E-score” value was -0.281. For CTTTTGTA, the “PBM E-score” value was 0.259. With AGAGGTCA the “PBM E-score” value was -0.293. In the case of CGCCGTGA, the “PBM E-score” value is reported as -0.0448. For CACGGGGC, the “PBM E-score” value was -0.106. For CGCCATGC, the “PBM E-score” value was -0.112. For ATATAATA, the “PBM E-score” value was 0.108. For GGGTAACA, the “PBM E-score” value was 0.0919. For CACGCGTC, the “PBM E-score” value was 0.123. For CCCTTAAC, the “PBM E-score” value was -0.0497. For AGACCCTC, the “PBM E-score” value was -0.278. With ATCACTTC the “PBM E-score” value was -0.0779. For GGACCTAA, the “PBM E-score” value was -0.145. GGTGTGGA was tested, and the “PBM E-score” value was -0.0515. With CATTCACG the “PBM E-score” value was -0.103. With CGTGGAAG the “PBM E-score” value was 0.0258. For CGCCTTAA, the “PBM E-score” value was 0.323. GGGGGACA was tested, and the “PBM E-score” value was -0.115. CAATTTCA was tested, and the “PBM E-score” value was -0.0623. In the case of AAAATACG, the “PBM E-score” value is reported as 0.219. For CGGTCTAG, the “PBM E-score” value was -0.106. With GGAGGGCA the “PBM E-score” value was 0.0299. With TACTGGAA the “PBM E-score” value was 0.0214. For GACTCTAC, the “PBM E-score” value was -0.19. ATGGATGC was tested, and the “PBM E-score” value was 0.012. For CAGTACTG, the “PBM E-score” value was -0.132. With ATTAACCG the “PBM E-score” value was 0.094. In the case of ATCCAAAG, the “PBM E-score” value is reported as 0.0763. CGCCGCCG was tested, and the “PBM E-score” value was -0.168. In the case of AAGGGGGG, the “PBM E-score” value is reported as -0.367. In the case of ACTAGGGC, the “PBM E-score” value is reported as -0.0507. In the case of CAATCGTA, the “PBM E-score” value is reported as 0.0685. With GTCCTAAC the “PBM E-score” value was -0.0835. With CACAGCGC the “PBM E-score” value was -0.0654. In the case of CCCCAACG, the “PBM E-score” value is reported as -0.0913. In the case of CGAGTAAC, the “PBM E-score” value is reported as 0.0541. TTCGACAA was tested, and the “PBM E-score” value was 0.179. For ACTTCCCC, the “PBM E-score” value was -0.21. With CTAGCACA the “PBM E-score” value was -0.168. For ACGTGCAT, the “PBM E-score” value was 0.115. In the case of CAGCACAC, the “PBM E-score” value is reported as -0.0921. For ACAACAAG, the “PBM E-score” value was 0.252. GTGTATCA was tested, and the “PBM E-score” value was 0.138.
